PMC5700166
The entries are a selection whose mix differs from that of the whole data set. The list includes weakly bound sequences.

Tests used:
Assay in all cases: protein-binding microarray (PBM)
Conditions in all cases: PBM: ~300 nM protein, 6 mM HEPES pH 7.8, 80 mM KCl, 0.5 mM EDTA, 0.5 mM EGTA, 6% glycerol, 35 ng/ul poly-dIdC, 1% milk, 1 h, room temperature; Ap Aiptasia and Nv Nematostella (sea anemones) / Co Capsaspora / Aq Amphimedon (sponge) / Dm Drosophila / Hu human; RHD is the Rel homology domain; high values mean tight binding; most listed sequences are background and not binding sites; double strand, one strand shown
[1] = target: T1, GST-Ap-NF-kB RHD (UniProt A0A913YAJ5)
T1 sequence: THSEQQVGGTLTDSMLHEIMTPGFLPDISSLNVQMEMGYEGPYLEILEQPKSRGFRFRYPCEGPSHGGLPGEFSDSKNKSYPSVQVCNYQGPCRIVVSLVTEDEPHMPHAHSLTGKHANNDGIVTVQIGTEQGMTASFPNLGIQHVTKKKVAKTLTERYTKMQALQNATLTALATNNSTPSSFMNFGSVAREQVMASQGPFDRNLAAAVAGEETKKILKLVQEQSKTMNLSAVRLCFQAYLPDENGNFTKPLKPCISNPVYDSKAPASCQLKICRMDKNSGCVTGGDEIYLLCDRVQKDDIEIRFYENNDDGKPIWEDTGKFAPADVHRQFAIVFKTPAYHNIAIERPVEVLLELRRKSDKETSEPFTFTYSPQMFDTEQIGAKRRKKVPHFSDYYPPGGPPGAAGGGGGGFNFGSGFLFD

[2] = target: T2, GST-Nv-NF-kB (Cys allele) (UniProt E5G601)
T2 sequence: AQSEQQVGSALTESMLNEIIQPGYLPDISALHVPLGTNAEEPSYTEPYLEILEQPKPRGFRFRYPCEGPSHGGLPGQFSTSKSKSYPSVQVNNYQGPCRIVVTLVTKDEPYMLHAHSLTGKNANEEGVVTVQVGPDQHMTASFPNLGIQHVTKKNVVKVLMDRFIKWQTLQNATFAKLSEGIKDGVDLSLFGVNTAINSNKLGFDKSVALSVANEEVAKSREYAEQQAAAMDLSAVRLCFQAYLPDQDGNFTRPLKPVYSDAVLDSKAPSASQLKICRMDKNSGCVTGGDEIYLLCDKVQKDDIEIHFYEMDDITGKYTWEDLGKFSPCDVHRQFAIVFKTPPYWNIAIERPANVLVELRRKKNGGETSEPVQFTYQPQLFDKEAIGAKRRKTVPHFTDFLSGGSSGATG

[3] = target: T3, GST-Co-NF-kB (UniProt F1ARL5)
T3 sequence: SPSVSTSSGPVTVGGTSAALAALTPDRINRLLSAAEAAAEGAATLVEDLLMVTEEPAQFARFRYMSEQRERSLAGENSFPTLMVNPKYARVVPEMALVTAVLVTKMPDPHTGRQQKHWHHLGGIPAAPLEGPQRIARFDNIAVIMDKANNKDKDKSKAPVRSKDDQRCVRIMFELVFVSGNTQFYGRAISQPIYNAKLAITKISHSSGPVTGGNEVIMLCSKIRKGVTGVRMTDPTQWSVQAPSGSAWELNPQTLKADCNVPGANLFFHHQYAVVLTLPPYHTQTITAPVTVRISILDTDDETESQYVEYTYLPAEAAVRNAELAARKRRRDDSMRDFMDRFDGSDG

[4] = target: T4, GST-Dm-Relish (UniProt Q94527)
T4 sequence: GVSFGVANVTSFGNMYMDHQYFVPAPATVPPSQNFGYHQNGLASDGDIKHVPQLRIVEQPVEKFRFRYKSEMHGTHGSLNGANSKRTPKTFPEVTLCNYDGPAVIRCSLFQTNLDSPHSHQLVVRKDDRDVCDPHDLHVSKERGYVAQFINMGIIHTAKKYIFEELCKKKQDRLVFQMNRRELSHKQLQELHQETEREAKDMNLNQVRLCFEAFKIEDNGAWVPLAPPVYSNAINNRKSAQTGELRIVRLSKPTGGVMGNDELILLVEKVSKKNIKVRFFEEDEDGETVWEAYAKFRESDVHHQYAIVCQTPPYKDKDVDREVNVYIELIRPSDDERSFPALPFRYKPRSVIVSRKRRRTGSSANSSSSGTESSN

[5] = target: T5, GST-Aq-NF-kB (UniProt A9Y5G7)
T5 sequence: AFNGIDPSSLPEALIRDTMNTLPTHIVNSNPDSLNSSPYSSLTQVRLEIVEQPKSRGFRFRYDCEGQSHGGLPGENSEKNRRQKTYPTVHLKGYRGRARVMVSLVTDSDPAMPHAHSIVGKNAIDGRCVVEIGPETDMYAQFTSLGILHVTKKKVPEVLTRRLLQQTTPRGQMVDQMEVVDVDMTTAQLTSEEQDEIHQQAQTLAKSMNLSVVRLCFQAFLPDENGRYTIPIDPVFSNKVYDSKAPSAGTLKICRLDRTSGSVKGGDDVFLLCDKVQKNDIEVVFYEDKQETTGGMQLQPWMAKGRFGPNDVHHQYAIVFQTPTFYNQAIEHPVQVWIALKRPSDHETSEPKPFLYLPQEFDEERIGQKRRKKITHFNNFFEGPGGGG

CCGATTAACATCACTGTACGCCTTGATGTTAATCGGGTCTTGATTCGCTTGACGCTGCTG
binding signal [1]: 0.289 z-score
binding signal [2]: -0.547 z-score
binding signal [3]: 0.085 z-score
binding signal [4]: -0.28 z-score
binding signal [5]: -0.00577 z-score

CCGATTAACATCATCGGAAACGCTGATGTTAATCGGGTCTTGATTCGCTTGACGCTGCTG
binding signal [1]: -0.252 z-score
binding signal [2]: -0.325 z-score
binding signal [3]: -0.978 z-score
binding signal [4]: -0.436 z-score
binding signal [5]: -0.428 z-score

CCGATTAACATCATACACATATTTGATGTTAATCGGGTCTTGATTCGCTTGACGCTGCTG
binding signal [1]: 0.0136 z-score
binding signal [2]: -0.602 z-score
binding signal [3]: -0.111 z-score
binding signal [4]: -0.371 z-score
binding signal [5]: -0.396 z-score

CCGATTAACATCAGGAACTATCCTGATGTTAATCGGGTCTTGATTCGCTTGACGCTGCTG
binding signal [1]: -0.848 z-score
binding signal [2]: 0.459 z-score
binding signal [3]: -0.514 z-score
binding signal [4]: -0.403 z-score
binding signal [5]: -0.231 z-score

CCGATTAACATCACAACCAAGGATGATGTTAATCGGGTCTTGATTCGCTTGACGCTGCTG
binding signal [1]: -0.251 z-score
binding signal [2]: -1.03 z-score
binding signal [3]: -0.212 z-score
binding signal [4]: -0.51 z-score
binding signal [5]: -0.29 z-score

CCGATTAACATCACGTGATTTCCTGATGTTAATCGGGTCTTGATTCGCTTGACGCTGCTG
binding signal [1]: -0.257 z-score
binding signal [2]: -0.0524 z-score
binding signal [3]: 0.754 z-score
binding signal [4]: 4.11 z-score
binding signal [5]: 0.831 z-score
